# Article PMC6919601, “Identification of Plasmodium dipeptidyl aminopeptidase allosteric inhibitors by high throughput screening” (PLoS ONE, 2019)
# Among all 110,000 compounds or so, about 230 (0.21%) showed an effect of 50% or more. This is one part of the list.
# Biological target: DPAP1 (Plasmodium falciparum, UniProt Q8IIJ9)
# Experiment: primary screen, percent inhibition; read by cleavage of a fluorogenic dipeptide substrate; higher = more effect of the substance
# Design: species or system P. falciparum D10 trophozoite lysates; single well
# 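Also: 30 min substrate incubation versus DMSO and 10 µM JCP410 controls.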
# DPAP1, sequence (Q8IIJ9 whole entry, looked up): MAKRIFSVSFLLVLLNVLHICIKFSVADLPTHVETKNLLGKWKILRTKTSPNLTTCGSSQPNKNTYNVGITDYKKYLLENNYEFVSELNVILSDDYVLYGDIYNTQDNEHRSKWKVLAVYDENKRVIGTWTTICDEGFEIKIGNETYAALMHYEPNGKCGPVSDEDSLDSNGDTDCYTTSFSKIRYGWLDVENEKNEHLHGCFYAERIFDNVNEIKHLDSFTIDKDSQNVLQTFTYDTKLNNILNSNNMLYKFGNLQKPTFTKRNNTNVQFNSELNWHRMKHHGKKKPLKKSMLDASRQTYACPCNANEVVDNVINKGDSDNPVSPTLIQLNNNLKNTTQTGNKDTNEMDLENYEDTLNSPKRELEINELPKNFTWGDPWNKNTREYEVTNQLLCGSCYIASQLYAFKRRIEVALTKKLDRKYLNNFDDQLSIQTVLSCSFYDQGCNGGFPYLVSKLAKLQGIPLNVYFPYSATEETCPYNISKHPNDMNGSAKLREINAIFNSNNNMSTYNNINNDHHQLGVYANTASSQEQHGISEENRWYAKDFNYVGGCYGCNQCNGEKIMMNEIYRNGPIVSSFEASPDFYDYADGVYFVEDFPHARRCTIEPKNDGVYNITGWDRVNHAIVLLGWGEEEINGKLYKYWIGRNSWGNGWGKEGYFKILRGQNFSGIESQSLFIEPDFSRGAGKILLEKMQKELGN
row,Structure (SMILES),% Inhibition @ 10 uM
1,COc1cccc(/C=C2\SC(=O)N(CC(=O)N3CCN(c4ccccc4)CC3)C2=O)c1O,2.01%
2,Cc1sc2ncn(CC(=O)O)c(=O)c2c1S(=O)(=O)N1CCOCC1,0.231%
3,CCOC(=O)c1c(NC(=O)CSc2nc3ccccc3s2)sc2c1CCN(C)C2,7.1%
4,Cc1ccc(C(=O)Nc2nc(-c3ccc4c(c3)Cc3ccccc3-4)cs2)cc1,2.22%
5,COc1ccc(S(=O)(=O)N2CCn3c2nc2ccccc23)cc1,2%
6,CCOc1ccc(S(=O)(=O)N(CC(=O)N(C)C)c2ccc(C)cc2)cc1,0.324%
7,O=C(CCCOc1ccccc1)Nc1nccs1,-12.3%
8,CCC1CCCCN1C(=O)CSc1nc2ncccc2o1 (stereo not drawn),-5.79%
9,COc1ccccc1C(=O)Nc1cccc(C(C)=O)c1,-6.17%
10,CCn1nccc1C(=O)NC1CCCCCC1,3.9%
11,Cn1cnc([N+](=O)[O-])c1C(=O)Nc1cccc([N+](=O)[O-])c1,-0.424%
12,O=C(Nc1ccccc1C(=O)N1CCNCC1)c1ccco1,-6.25%
13,Cc1c(C(=O)N2CCC3(CC2)OCCO3)oc2ccc(S(=O)(=O)N(C)C3CCCCC3)cc12,14.5%
14,CC(C)(C)c1ccc(CN2C3=NCCCN3c3ccccc32)cc1,-5.16%
15,CCC(C)N1CCN(Cc2cccc(C)c2)CC1 (stereo not drawn),-7.18%
16,CC1CCCCC1NCc1ccco1 (stereo not drawn),1.84%
17,CCN(CC)CCCNC(=O)c1ccc(N2Cc3cccc(OC)c3Oc3ncccc32)s1,-4.52%
18,Cc1ccccc1C(=O)NCC(C)NC(=O)c1ccccc1C (stereo not drawn),0.408%
19,Cc1cc(Oc2c(C(F)(F)F)oc3c(CN4CCOCC4)c(O)ccc3c2=O)cc(C)c1Cl,-4.85%
20,O=C(c1ccco1)N1CCN(S(=O)(=O)c2ccc(-c3cc(C(F)(F)F)no3)s2)CC1,1.2%
21,O=C(c1ccco1)N1CCN(CCN2CCCCC2)CC1,9.75%
22,CCN(CC)CCn1c2ccccc2n2c(C(C)=O)c(C)nc12,2.14%
23,Oc1nc(N2CCCCC2)nc2ncn(Cc3ccccc3)c12,5.3%
24,O=S(=O)(c1ccc(Cl)nc1)N1CCc2ccccc21,-1.88%
25,CCCCOc1ccc(/C=C(\C#N)c2nc(-c3ccc(Cl)cc3)cs2)cc1,-0.736%
26,O=S(=O)(c1cnccc1Nc1cccc(C(F)(F)F)c1)N1CCOCC1,0.0285%

row,Structure (SMILES),% Inhibition @ 10 uM
1,O=C(CCc1ccc(S(=O)(=O)NCc2ccccc2)cc1)NC1CCCCC1,3.72%
2,COc1ccc(NC(=O)c2ccccn2)cc1,1.39%
3,Cc1nc2nc(C)c(CCC(=O)NCCC3=CCCCC3)c(C)n2n1,1.26%
4,O=S(=O)(Nc1cccc2cccnc12)c1ccc2ccccc2c1,-1.28%
5,COc1ccc2nc(O)c(-c3ccccc3)c(O)c2c1,-1.6%
6,COc1ccc([C@H]2NCC[C@@]3(O)CCCC[C@H]23)c(OC)c1OC,-5.5%
7,COc1cc(C(=O)N2N=C(C(F)F)CC2(O)C(F)F)ccc1O (stereo not drawn),9.65%
8,CC(=O)Nc1ccc(Nc2nc(-c3c(C)nc4ccccn34)cs2)cc1,-4.06%
9,Cc1cc(C)n(CCc2nc3c4ccccc4nc(SCC(=O)c4ccc(F)cc4)n3n2)n1,3.38%
10,CN1CCN(c2c(C(=O)c3ccccc3)cnc3ccc(Cl)cc23)CC1,-7.48%
11,Cc1cc(Cl)ccc1OCC(O)CN1CCCC1 (stereo not drawn),-2.97%
12,O=C(Nc1cccc(C(F)(F)F)c1)C12CC3CC(CC(C3)C1)C2,-5.81%
13,Cc1ccc2[nH]c(C)c(CCC(=O)NC3CCCCC3)c2c1,-1.86%
14,COc1ccc(Nc2cccc(Cl)c2)c(C(=O)O)c1,1.72%
15,CCOC(=O)c1c(NC(=O)c2cc3nc(-c4ccco4)cc(C(F)(F)F)n3n2)sc(C)c1C,0.64%
16,OCCCNc1c2c(nc3ccccc13)CCCC2,-4.6%
17,CC(NC(=O)Cn1ncc2ccsc2c1=O)C12C[C@H]3C[C@@H](C1)C[C@@H](C2)C3 (stereo partly drawn),0.236%
18,CCc1ccccc1/N=C/C1=C(O)CC(c2ccccc2)CC1=O (stereo not drawn),0.673%
19,Cc1ccc2onc(CNC(=O)NC(C)CCc3ccco3)c2c1 (stereo not drawn),5.27%
20,O=C(O)C#CC(O)(c1ccccc1)c1ccccc1,-3.62%
21,Cc1cccc(C)c1NC(=O)Nc1ccc(Cl)c(Cl)c1,-5.9%
22,Oc1ccc(/C=C/c2cc(O)cc(O)c2)cc1,0.76%
23,CN(C)c1ccc(C=C2C(=O)NC(=O)NC2=O)cc1,-5.5%
24,CCCCNC(=O)C(=O)c1c(O)[nH]c2ccccc12,2.56%
25,CC(CCc1ccc(O)cc1)NC1CCCCCC1 (stereo not drawn),-1.56%
26,CCC(C)Sc1nc2c(c(=O)[nH]c(=O)n2C)n1CC(O)COc1ccc(Cl)cc1 (stereo not drawn),1.4%

row,Structure (SMILES),% Inhibition @ 10 uM
1,CN1CCN(Cc2c(NC(=O)c3ccccc3)sc3c2CCCC3)CC1,0.222%
2,COc1ccc(S(=O)(=O)Nc2cc(C)ccc2C)cc1,3.47%
3,CCn1cc(C(=O)N2CCN(C3CCCCC3)CC2)c2cc(OC)c(OC)cc2c1=O,-7.1%
4,CCN1CCN(C2CCN(Cc3ccc(OC)c(OC)c3OC)CC2)CC1,-4.84%
5,CC(C)Cc1ccc(S(=O)(=O)NC2CCN(Cc3ccccc3)CC2)cc1,-4.07%
6,O=C(Nc1ccc(N2CCOCC2)cc1)C1(S(=O)(=O)c2ccccc2)CC1,-4.16%
7,Cc1ccc(CNC(=O)CN(C)S(=O)(=O)c2ccc3[nH]c(-c4ccccc4)nc3c2)cc1,-5.61%
8,Cc1cccn2c(=O)c(/C=C(\C#N)C(=O)NCC3CCCO3)c(Oc3ccccc3)nc12 (stereo not drawn),0.315%
9,CCCNC(=O)CCn1c(-c2ccc(F)cc2)cc(C(C)=O)c1C,-9.31%
10,CC1CC(C)CN(C(=O)CNC(=S)N2CC3CC(C2)c2cccc(=O)n2C3)C1 (stereo not drawn),4.36%
11,C=CCOc1c(CNc2cccc(C(=O)O)c2)cccc1OC,-1.61%
12,Fc1ccccc1CN1CCc2c([nH]c3ccccc23)C1,6.11%
13,CCOc1cc(/C=C2\SC(=O)N(CC(=O)N3CCOCC3)C2=O)cc(Br)c1OCC,7.71%
14,CCOc1ccc(-c2c(C)nn3c2NCN(Cc2ccc(C)cc2)C3)cc1OCC,-2.88%
15,CN(CC#CC(C)(C)O)Cc1ccccc1,-1.77%
16,COc1cc(OC)cc(C(=O)N2CCN(c3ccccc3)CC2)c1,9.83%
17,COc1ccccc1[C@@H](C)C[C@H](NC(=O)c1cc2c(C(F)(F)F)nn(C)c2s1)C(=O)NCC#N,0.079%
18,COc1cc(CN2CCN(c3ccc(Cl)cc3)CC2)cc(OC)c1O,15%
19,CCCCC(C(=O)Nc1ccccc1)N1C(=O)c2ccccc2C1=O (stereo not drawn),-2.88%
20,C=Cc1ccc(Cn2c(C)c(CNCCc3ccc(Cl)cc3)c(C(=O)O)c2C)cc1,10.2%
21,COc1ccc(NCC2CCCCC2)cc1,-4.14%
22,CC(C)=C1SC(N2CCN(c3ccccc3C)CC2)=NC1=O,-2.17%
23,CC(=O)N1CCN(Cc2ccccc2F)CC1,-6%
24,CC(C)c1ccccc1OCC(=O)Nc1ccc(S(=O)(=O)Nc2ccccn2)cc1,2.13%
25,O=C1C2C(c3ccccc3)C=CC(c3ccccc3)C2C(=O)N1n1cnnc1 (stereo not drawn),-5.28%
26,COc1ccc(Br)cc1CNC1CCCC1,1.84%

row,Structure (SMILES),% Inhibition @ 10 uM
1,CCOC(=O)Nc1ccc2c(c1)N(C(N)=O)c1ccccc1S2,3.96%
2,C=CCSc1nc(-c2ccccc2)cc(-c2ccccc2)c1C#N,-2%
3,COc1ccc(-c2nc(NC(C)=O)sc2-c2ccc(OC)cc2)cc1,-0.597%
4,O=C(Nc1sc2c(c1C(=O)O)CCCC2)c1ccc(Br)cc1,-4.31%
5,O=C1C2C(C(=O)N1c1ccccc1F)C2(c1ccccc1)c1ccccc1 (stereo not drawn),4.03%
6,COCCN1C(=O)C(O)=C(C(=O)c2ccccc2)C1c1ccc(O)c(OC)c1 (stereo not drawn),0.35%
7,Cc1ccc(S(=O)(=O)N2CCC(C(=O)N3CCC(C(=O)NCC4CCCO4)CC3)CC2)cc1 (stereo not drawn),-4.97%
8,Cc1cc(-c2ccc(S(=O)(=O)N3CCc4ccccc4C3)cc2)on1,-7.28%
9,O=C(CNS(=O)(=O)c1cccs1)N1CCCCCC1,-3.05%
10,CC(=O)N1N=C(c2ccccc2)CC1c1cccc(Cl)c1 (stereo not drawn),-3.04%
11,CCC(O)CN1CCN(c2ccc(C3CCCC3)cc2)CC1 (stereo not drawn),1.19%
12,CCOc1ccc(C(=O)C(CN2CCCC2)c2ccccc2)cc1 (stereo not drawn),0.408%
13,CCOc1ccc(C(=O)Nc2ccccc2C(C)C)cc1,3.44%
14,COc1ccc(Cc2nnc(NC(=O)c3ccc(C(C)(C)C)cc3)s2)cc1,-0.769%
15,CN1C(=O)/C(=C\c2ccc3c(c2)OCO3)S/C1=N/c1ccccc1,-6.17%
16,Cc1ccc(S(=O)(=O)N2CCN(Cc3ccccc3)CC2)cc1,-5.41%
17,CCCCOc1ccc(/C=C(\C#N)c2nc(-c3ccc(OCC)cc3)cs2)cc1,-6.07%
18,CC(C)OC(=O)c1cc2ccc(O)cc2oc1=O,-1.96%
19,COc1ccc(OC)c(NC(=O)C(c2ccccc2)c2ccccc2)c1,-0.771%
20,CC(C)Cc1ccc(S(=O)(=O)NC2CCCC(C)C2C)cc1 (stereo not drawn),6.8%
21,CCN1CCN(C(=O)C2=CC(c3ccc(OC)cc3)=NS(=O)(=O)N2C)CC1,6.98%
22,O=C(NCCC1=CCCCC1)C(Cc1ccccc1)NS(=O)(=O)c1cccc2cccnc12 (stereo not drawn),2.6%
23,CC(Cc1ccccc1)NC(=O)/C=C/c1ccccc1 (stereo not drawn),-1.64%
24,CCOC(=O)c1c(NC(=O)CSc2cn(C)c3ccccc23)sc2c1CCC2,8.32%
